Measured values taken from PubChem BioAssay AID488969 (Vanderbilt High Throughput Screening Facility, 2010).
Over roughly 110,000 compounds, “z-score” has its median near -0.1; the highest 2% begin near 2. This is one part of the list. Activity calls are given as the source filed them.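 How the source made its calls: active means z-score in the third read window above 3 or below -3; inactive means the rest.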

Target: Metabotropic glutamate receptor 8 (Rattus norvegicus) (UniProt P70579)
Experiment: mGluR8 Gi/Go-coupled signaling modulation – cell-based, rat, thallium flux, HTS, primary screen (AID 488969)
Settings: HEK293 rat mGluR8, GIRK (G protein-gated inwardly rectifying potassium channel) thallium flux, FluoZin2; at 10 µM; stronger effect = higher value; submaximal glutamate (EC20) added with thallium

Sequence of UniProt P70579 (P70579 whole entry, looked up): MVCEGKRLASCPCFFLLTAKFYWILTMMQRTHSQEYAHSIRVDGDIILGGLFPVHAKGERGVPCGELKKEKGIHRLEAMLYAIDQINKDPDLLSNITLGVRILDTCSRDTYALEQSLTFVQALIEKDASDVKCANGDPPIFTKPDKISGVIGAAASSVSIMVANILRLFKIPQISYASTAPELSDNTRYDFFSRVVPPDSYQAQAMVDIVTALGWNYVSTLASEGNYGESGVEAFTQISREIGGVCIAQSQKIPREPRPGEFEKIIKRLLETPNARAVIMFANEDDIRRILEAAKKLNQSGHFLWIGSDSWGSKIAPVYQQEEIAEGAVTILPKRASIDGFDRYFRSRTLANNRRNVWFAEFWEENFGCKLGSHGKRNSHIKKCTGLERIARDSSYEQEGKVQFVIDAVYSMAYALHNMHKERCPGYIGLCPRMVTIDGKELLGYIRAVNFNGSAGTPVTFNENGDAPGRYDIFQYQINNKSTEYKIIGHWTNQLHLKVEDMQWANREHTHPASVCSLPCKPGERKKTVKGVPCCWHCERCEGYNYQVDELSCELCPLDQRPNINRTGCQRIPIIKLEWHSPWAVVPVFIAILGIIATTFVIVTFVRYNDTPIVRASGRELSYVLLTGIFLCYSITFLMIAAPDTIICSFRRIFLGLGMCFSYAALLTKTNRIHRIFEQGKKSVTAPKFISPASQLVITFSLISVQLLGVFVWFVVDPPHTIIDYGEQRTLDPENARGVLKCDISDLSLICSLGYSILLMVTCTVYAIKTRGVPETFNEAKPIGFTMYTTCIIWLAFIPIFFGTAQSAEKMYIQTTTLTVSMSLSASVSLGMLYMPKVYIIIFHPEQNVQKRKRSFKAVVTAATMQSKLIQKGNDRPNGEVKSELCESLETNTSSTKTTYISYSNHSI

| Compound | z-score |
| --- | --- |
| CCN(CC)c1ccc(C2CC(=O)NC3=C2C(=O)CC(C)(C)C3)cc1 (stereo not given) | -1.64 |
| c1ccc2c(c1)NC(CN1CCOCC1)CO2 (stereo not given) | 0.144 |
| Cc1n[nH]c(C)c1CCc1nc2c3ccccc3nc(SCC(=O)Nc3ccccc3F)n2n1 | -0.0964 |
| COc1cccc(N2C(=O)C3CCCN3C2c2ccc(F)cc2)c1 (stereo not given) | -0.0703 |
| CC(NC(=O)Cc1cccs1)c1ccc2c(c1)OCO2 (stereo not given) | 0.924 |
| O=C(c1cnn2c(C(F)F)cc(C3CC3)nc12)N1CCc2ccccc2C1 | -1.15 |
| COc1ccc(CCNC(=O)CN2CCC(C)CC2)cc1OC | 0.376 |
| CCC(C)(C)NC(=O)c1cc(C(=O)OC)cc([N+](=O)[O-])c1 | 0.4 |
| NC(=O)C1(N2CCCCC2)CCN(C2CC(=O)NC2=O)CC1 (stereo not given) | 0.782 |
| Cc1ccc(N2C(=O)C3C4C=CC(CNC(=S)Nc5cccc(Cl)c5)(O4)C3C2=O)cc1 (stereo not given) | -0.15 |
| Cn1cc(S(=O)(=O)Nc2ccc(Br)cc2F)c(=O)n(C)c1=O | 0.532 |
| CSc1nsc(SCC(=O)Nc2ccc(Br)cn2)n1 | -0.419 |
| COCCNC(=O)C1=C(N)C(C(=O)Nc2ccc(C)c(S(=O)(=O)N3CCCCC3)c2)SC1=Nc1ccc(C)cc1C (stereo not given) | -0.143 |
| COc1cc(/C=N/NC(=O)CCC(=O)NCc2ccccc2)cc(OC)c1OC | 0.16 |
| Cc1ccc(C(=O)c2coc3ccc(OCC(=O)O)cc23)cc1 | -1.87 |
| Cc1ccc(S(=O)(=O)N/N=c2\sc3ccccc3n2C)cc1 | 0.783 |
| Cc1nnc(SCc2ccon2)n1-c1ccccc1 | 1.31 |
| Cc1ccc(-c2cc(C(=O)N/N=C/c3c[nH]c4ccccc34)n[nH]2)o1 | -0.212 |
| Cn1c(NCC2CCCO2)nc2c1c(=O)n(Cc1ccccc1)c(=O)n2C (stereo not given) | -0.136 |
| COc1ccccc1NC(=O)CSc1nnnn1-c1ccc2c(c1)OCO2 | -0.755 |
| CCN(CC)CC(O)Cn1c2ccccc2c2ccccc21 (stereo not given) | 0.977 |
| Cc1ccc(N2C(=O)/C(=C/c3cccnc3)SC2=S)cc1 | 0.0454 |
| NC(=S)NN=C1c2cc(S(=O)(=O)N3CCOCC3)ccc2-c2ccc(S(=O)(=O)N3CCOCC3)cc21 | 0.0882 |
| CN(c1cccc(Cl)c1)S(=O)(=O)c1cccc(C(=O)Nc2ccc3c(c2)CCC3)c1 | -0.241 |

| Compound | z-score |
| --- | --- |
| COc1cccc(OCCNc2cc(N3CCOCC3)ccc2[N+](=O)[O-])c1 | -0.191 |
| Cc1ccc(C(=O)C[n+]2ccc(-c3nnc4n3CCC4)cc2)cc1 | -0.141 |
| Cn1cnc2c1c(=O)n(Cc1cccc(Br)c1)c(=O)n2C | 0.157 |
| CC1CN(C(c2ccco2)c2sc3ncnn3c2O)CC(C)O1 (stereo not given) | -0.0394 |
| CC(C)Oc1snc(Cl)c1C(N)=O | -0.0324 |
| O=C(c1ccc(Br)o1)N1CCN(Cc2ccc3c(c2)OCO3)CC1 | -1.48 |
| O=C(Cn1nnc(-c2ccccc2F)n1)Nc1ccc(S(=O)(=O)NC2CCCC2)cc1 | 0.00767 |
| COc1ccc(-c2oc3ncn(Cc4ccco4)c(=N)c3c2-c2ccc(OC)cc2)cc1 | 0.282 |
| CCCNC(=O)c1cc(SC)ccc1Cl | 0.0122 |
| CC1=C(C(=O)Nc2ccc(C)cc2)C(c2ccc(C)o2)C2=C(CC(C)(C)CC2=O)N1 (stereo not given) | 0.024 |
| CCCC1Cc2c(sc(NC(=S)NC(=O)c3ccccc3)c2C#N)CO1 (stereo not given) | 0.489 |
| O=C(COC(=O)C1CCN(S(=O)(=O)c2ccccc2)CC1)NC(=O)c1ccc(OC(F)F)cc1 | 0.0288 |
| COc1ccc(NCc2n[nH]c(=O)c3ccccc23)cc1 | 0.491 |
| O=C(CCSc1ccccc1)NCC1CCCO1 (stereo not given) | 0.287 |
| CCOc1ccc(CCNC(=O)CCCN2C(=O)c3ccccc3C2=O)cc1OCC | 0.111 |
| N#Cc1nc(Cc2ccccc2)oc1NCc1ccccc1 | -0.376 |
| CCCC(=O)NC(=S)Nc1ccccc1F | 0.262 |
| Cn1cccc1C(=O)NC(=O)COC(=O)CC12CC3CC(CC(C3)C1)C2 | 0.405 |
| O=C(Nc1nccc(-c2cccs2)n1)c1ccccc1Cl | -0.118 |
| O=C(Nc1cc(SCCO)cc([N+](=O)[O-])c1)c1ccc(Br)o1 | -0.169 |
| CCOc1ccc(-n2c(SCC(=O)c3c(N)n(C)c(=O)n(C)c3=O)nnc2-c2cccnc2)cc1 | -0.21 |
| O=C1c2ccccc2NC(c2ccc(O)cc2)N1Cc1ccco1 (stereo not given) | 0.0885 |
| O=C(CN1CCCCC1)Nc1ccc(NC(=O)c2ccc(Cl)cc2)cc1Cl | -0.0147 |
| CC(=O)Nc1sc2c(c1C#N)CCCCC2 | -0.296 |

| Compound | z-score |
| --- | --- |
| CC1CCN(c2ccc(C(=O)N3CCOCC3)cc2[N+](=O)[O-])CC1 | 0.0207 |
| CCCCCNc1nc(-c2ccccc2)cs1 | active: 3.86 |
| Cc1ccc(-n2c3c(c(=O)[nH]c2=O)C(NS(=O)(=O)c2ccc(Cl)cc2)(C(F)(F)F)C(=O)N3)cc1 (stereo not given) | 0.621 |
| O=C(CNc1cccc(Cl)c1)c1ccc(Cl)cc1 | -0.405 |
| Cc1ccc(C(=O)Oc2ccc(C(=O)COC(=O)C3CC(=O)N(Cc4ccco4)C3)cc2)cc1 (stereo not given) | -0.0653 |
| CCOC(=O)c1cc2sccc2n1CCCN1C(=O)c2ccccc2C1=O | 0.0234 |
| CS(=O)(=O)N1N=C(c2ccc(Br)cc2)CC1c1cccs1 (stereo not given) | 0.394 |
| C=CCn1c(SCC(=O)Nc2cccc(OC)c2)nnc1-c1cccnc1 | -0.424 |
| Cc1nc(CNS(=O)(=O)c2cc(C)c(C)cc2C)cs1 | -0.0555 |
| O=C(NCc1ccc2c(c1)OCO2)c1cc2ncc(Br)cn2n1 | 0.244 |
| O=S(=O)(c1ccc(Br)cc1)N1CCCC1c1nc2ccccc2s1 (stereo not given) | -0.354 |
| CCCNC(=S)NCCN1CCCCC1 | -0.303 |
| Cc1c(C(=O)NNS(=O)(=O)c2ccccc2Cl)sc(=S)n1C | -0.175 |
| Cc1cccc(NC(=O)CSc2nnc(NC(=O)CN3CCOCC3)s2)c1 | 1.04 |
| CS(=O)(=O)n1nc(-c2ccccc2)nc1N | -0.262 |
| Cc1nc2ccc(S(=O)(=O)NC(C(=O)Nc3nc4ccc(Cl)cc4s3)C(C)C)cc2s1 (stereo not given) | -0.00466 |
| CC(C)n1nc(C(=O)Oc2cc(Cl)ccc2Cl)c2ccccc2c1=O | 0.267 |
| CCc1c(O)nc(SCC(=O)Nc2ccc(OC)cc2)n(C2CCCCC2)c1=O | -2.85 |
| CCCn1c(CN2CCN(C(=O)c3ccco3)CC2)nc2c1c(=O)n(C)c(=O)n2C | -1.63 |
| CCCCC1S/C(=N/N=C/c2cccs2)NC1=O (stereo not given) | -0.292 |
| CC(=O)Nc1ccc(NC(=S)NC(=O)c2ccc([N+](=O)[O-])cc2)cc1 | -0.11 |
| Cc1ccc2[nH]c(=O)c(CN(Cc3cccs3)C(=S)NCc3ccco3)cc2c1 | 0.17 |
